Test results from the supplement of paper PMC10369915.
The other results are listed elsewhere or left out. No stated cut-off is given here; in the data, active = 3.2 or more and inactive = the rest. Only a few entries rise above the background.

B1: TMIGD2_Y197_A202P_YF (peptide)
chain: FSNVLYRPRGP
B2: TIMP3_Y177_YF (peptide)
chain: FGFPGYQSKHF
B3: TMEFF2_Y361_D364E (peptide)
chain: QNTGHYSSENT
B4: TJP1_Y931_P930L (peptide)
chain: SSPVLYLSPET
B5: TMCC2_Y473_D476N (peptide)
chain: VSSPKYGSNDE
B6: TMEM87B_Y460_N456D (peptide)
chain: ADNQRYAFMPL
B7: TLK2_Y259 (peptide)
chain: KMLEKYKERLN
B8: TMPRSS12_Y23_YF (peptide)
chain: LFSDHYSPSGR
B9: TMC2_Y209_Q205R (peptide)
chain: KRLYAYKMLMA
B10: TKT_Y564_YF (peptide)
chain: VEDHFYEGGIG
B11: TMIGD2_Y197_A202P (peptide)
chain: YSNVLYRPRGP
B12: TMPRSS6_Y290 (peptide)
chain: LITSVYGCSRQ
B13: TMPRSS12_Y23 (peptide)
chain: LYSDHYSPSGR
B14: TMEM130_Y412_E407V (peptide)
chain: VTPSEYLEIVR
B15: TMEM230_Y112_R108C_YF (peptide)
chain: FCGFSYDDIPD
B16: TMC2_Y209 (peptide)
chain: KQLYAYKMLMA
B17: TKT_Y563_Y563D_YF (peptide)
chain: TVEDHDFEGGI
B18: TMIGD2_Y197_YF (peptide)
chain: FSNVLYRPRGA
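Further: displayed peptides selected on beads carrying the immobilized SH2 domain, with library peptides lacking any tyrosine serving as negative controls.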

The binders below were run against SHP2 C-SH2 domain E139D (assay: enrichment score (SH2-bound / input frequency) (ratio); bacterial display of known human phosphotyrosine sites (pTyr-Var adds point mutants) read by sequencing; higher = stronger binding; tyrosines were phosphorylated by kinases first). Details: peptide library: pTyr-Var.
For B1, the enrichment score was inactive: 0.347. For B2, the enrichment score was inactive: 0.981. In the case of B3, the enrichment score is reported as inactive: 0.669. For B4, the enrichment score was inactive: 0.75. For B5, the enrichment score was inactive: 0.486. With B6 the enrichment score was inactive: 0.72. B7 was tested, and the enrichment score was inactive: 1.17. For B8, the enrichment score was inactive: 1. B9 was tested, and the enrichment score was active: 3.91. In the case of B10, the enrichment score is reported as inactive: 0.913. In the case of B11, the enrichment score is reported as inactive: 0.242. With B12 the enrichment score was inactive: 0.881. In the case of B13, the enrichment score is reported as inactive: 0.748. With B14 the enrichment score was inactive: 1.02. In the case of B15, the enrichment score is reported as inactive: 1.26. For B16, the enrichment score was inactive: 1.26. With B17 the enrichment score was inactive: 0.542. In the case of B18, the enrichment score is reported as inactive: 0.222.

The binders below were run against SHP2 C-SH2 domain wild-type in the same assay as above. Details: peptide library: pTyr-Var.
For B1, the enrichment score was inactive: 0.236. B2 was tested, and the enrichment score was inactive: 0.813. In the case of B3, the enrichment score is reported as inactive: 0.617. B4 was tested, and the enrichment score was inactive: 0.613. With B5 the enrichment score was inactive: 0.522. B6 was tested, and the enrichment score was inactive: 0.525. In the case of B7, the enrichment score is reported as inactive: 0.887. With B8 the enrichment score was inactive: 0.818. B9 was tested, and the enrichment score was active: 3.23. In the case of B10, the enrichment score is reported as inactive: 0.869. With B11 the enrichment score was inactive: 0.171. In the case of B12, the enrichment score is reported as inactive: 1.01. For B13, the enrichment score was inactive: 0.677. B14 was tested, and the enrichment score was inactive: 0.955. In the case of B15, the enrichment score is reported as inactive: 1.23. With B16 the enrichment score was inactive: 1.41. With B17 the enrichment score was inactive: 0.674. B18 was tested, and the enrichment score was inactive: 0.295.

What follows are binders tested against SHP2 N-SH2 domain L43F in the same assay as above. Details: peptide library: pTyr-Var.
B1 was tested, and the enrichment score was inactive: 0.289. B2 was tested, and the enrichment score was inactive: 0.917. With B3 the enrichment score was inactive: 0.382. In the case of B4, the enrichment score is reported as inactive: 2.15. B5 was tested, and the enrichment score was inactive: 0.622. B6 was tested, and the enrichment score was inactive: 0.67. B7 was tested, and the enrichment score was inactive: 0.898. With B8 the enrichment score was inactive: 0.809. In the case of B9, the enrichment score is reported as inactive: 3.05. B10 was tested, and the enrichment score was inactive: 0.988. For B11, the enrichment score was inactive: 0.249. In the case of B12, the enrichment score is reported as inactive: 0.771. In the case of B13, the enrichment score is reported as inactive: 0.556. For B14, the enrichment score was inactive: 0.589. In the case of B15, the enrichment score is reported as inactive: 1.2. B16 was tested, and the enrichment score was inactive: 1.34. B17 was tested, and the enrichment score was inactive: 0.666. With B18 the enrichment score was inactive: 0.241.

What follows are binders tested against SHP2 N-SH2 domain T42A in the same assay as above. Details: peptide library: pTyr-Var.
In the case of B1, the enrichment score is reported as inactive: 0.311. With B2 the enrichment score was inactive: 0.845. For B3, the enrichment score was inactive: 0.398. With B4 the enrichment score was active: 3.24. In the case of B5, the enrichment score is reported as inactive: 0.489. B6 was tested, and the enrichment score was inactive: 0.576. For B7, the enrichment score was inactive: 0.794. For B8, the enrichment score was inactive: 0.833. B9 was tested, and the enrichment score was inactive: 3.06. In the case of B10, the enrichment score is reported as inactive: 0.627. In the case of B11, the enrichment score is reported as inactive: 0.186. With B12 the enrichment score was inactive: 0.711. In the case of B13, the enrichment score is reported as inactive: 0.631. In the case of B14, the enrichment score is reported as inactive: 0.665. For B15, the enrichment score was inactive: 1.15. With B16 the enrichment score was inactive: 1.38. B17 was tested, and the enrichment score was inactive: 0.443. B18 was tested, and the enrichment score was inactive: 0.286.

The binders below were run against SHP2 N-SH2 domain T52S in the same assay as above. Details: peptide library: pTyr-Var.
With B1 the enrichment score was inactive: 0.214. For B2, the enrichment score was inactive: 0.805. With B3 the enrichment score was inactive: 0.37. With B4 the enrichment score was inactive: 2.3. B5 was tested, and the enrichment score was inactive: 0.522. For B6, the enrichment score was inactive: 0.653. In the case of B7, the enrichment score is reported as inactive: 0.906. With B8 the enrichment score was inactive: 0.692. For B9, the enrichment score was inactive: 3. B10 was tested, and the enrichment score was inactive: 0.765. In the case of B11, the enrichment score is reported as inactive: 0.256. For B12, the enrichment score was inactive: 0.842. For B13, the enrichment score was inactive: 0.761. For B14, the enrichment score was inactive: 0.767. B15 was tested, and the enrichment score was inactive: 1.16. For B16, the enrichment score was inactive: 1.27. B17 was tested, and the enrichment score was inactive: 0.611. B18 was tested, and the enrichment score was inactive: 0.213.

The binders below were run against SHP2 N-SH2 domain wild-type in the same assay as above. Details: peptide library: pTyr-Var.
For B1, the enrichment score was inactive: 0.277. For B2, the enrichment score was inactive: 0.816. In the case of B3, the enrichment score is reported as inactive: 0.455. In the case of B4, the enrichment score is reported as inactive: 1.1. B5 was tested, and the enrichment score was inactive: 0.485. For B6, the enrichment score was inactive: 0.698. B7 was tested, and the enrichment score was inactive: 0.962. In the case of B8, the enrichment score is reported as inactive: 1.02. With B9 the enrichment score was inactive: 3.09. B10 was tested, and the enrichment score was inactive: 0.688. With B11 the enrichment score was inactive: 0.346. For B12, the enrichment score was inactive: 1.12. With B13 the enrichment score was inactive: 0.55. In the case of B14, the enrichment score is reported as inactive: 0.902. With B15 the enrichment score was inactive: 1.3. In the case of B16, the enrichment score is reported as inactive: 1.38. In the case of B17, the enrichment score is reported as inactive: 0.629. B18 was tested, and the enrichment score was inactive: 0.191.
